Data as given in the supplement of paper PMC7826260.
Some of the results follow. The data describe in vitro nicking of single-stranded DNA by Rep domains (1 h at 37 °C, 3 µM enzyme); the outer parts of the 90-letter strands are left off. Numbers give uncut DNA relative to the enzyme-free pool, as log2; more negative means more cut, near 0 not cut, and no call is made. The scaling is to total reads; uncut strands gain when others are lost, and binding without cutting may add a little.

Key:
Experiment in all cases: uncleaved DNA left, log2 of reads against the no-enzyme library (log2 ratio); higher = less cleavage (more negative = more Rep cleavage of the k-mer); sequences stand for … in CTCGTCCG…ACCGGAGA
[1] = test system: T1, Rep nickase domain of Muscovy duck circovirus
T1 sequence (residues 1-111 of Rep, tag left off): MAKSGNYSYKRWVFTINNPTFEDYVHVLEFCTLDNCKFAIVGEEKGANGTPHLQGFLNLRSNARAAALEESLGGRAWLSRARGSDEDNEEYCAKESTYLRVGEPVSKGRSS
Protocol: (§1)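 A pool of 90-nt single-stranded DNAs with seven random bases just before the constant AC of the nick site (name = the seven bases) was cut by 3 µM recombinant His6-SUMO-tagged Rep nickase domain (300 nM DNA, 50 mM HEPES pH 8.0, 50 mM NaCl, 1 mM MnCl2, 1 h, 37 °C, three replicates). Uncut DNA was amplified and sequenced.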

[2] = test system: T2, Rep nickase domain of banana bunchy top virus
T2 sequence (residues 1-94 of Rep, tag left off): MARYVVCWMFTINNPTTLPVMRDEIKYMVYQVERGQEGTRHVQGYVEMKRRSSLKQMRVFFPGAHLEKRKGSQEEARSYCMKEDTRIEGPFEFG
Protocol: as §1

[3] = test system: T3, Rep nickase domain of cabbage leaf curl virus
T3 sequence (residues 1-116 of Rep, tag left off): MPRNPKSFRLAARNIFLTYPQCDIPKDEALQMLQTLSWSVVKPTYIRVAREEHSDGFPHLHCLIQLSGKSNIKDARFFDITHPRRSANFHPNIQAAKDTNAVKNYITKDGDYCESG
Protocol: as §1

[4] = test system: T4, Rep nickase domain of chickpea chlorotic dwarf virus
T4 sequence (residues 1-124 of Rep, tag left off): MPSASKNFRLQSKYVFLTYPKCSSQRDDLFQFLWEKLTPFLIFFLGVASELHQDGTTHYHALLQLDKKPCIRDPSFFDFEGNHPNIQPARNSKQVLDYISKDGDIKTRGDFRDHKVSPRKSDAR
Protocol: as §1

[5] = test system: T5, Rep nickase domain of faba bean necrotic yellows virus
T5 sequence (residues 1-98 of Rep, tag left off): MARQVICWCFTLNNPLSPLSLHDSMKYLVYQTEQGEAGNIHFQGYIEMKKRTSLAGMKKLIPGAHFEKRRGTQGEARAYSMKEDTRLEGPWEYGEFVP
Protocol: as §1

[6] = test system: T6, Rep nickase domain of maize striate mosaic virus
T6 sequence (residues 1-117 of Rep, tag left off): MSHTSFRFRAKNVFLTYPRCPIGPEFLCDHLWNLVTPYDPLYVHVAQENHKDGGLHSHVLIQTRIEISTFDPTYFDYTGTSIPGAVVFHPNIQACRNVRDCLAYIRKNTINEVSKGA
Protocol: as §1

[7] = test system: T7, Rep nickase domain of porcine circovirus 2
T7 sequence (residues 2-116 of Rep, tag left off): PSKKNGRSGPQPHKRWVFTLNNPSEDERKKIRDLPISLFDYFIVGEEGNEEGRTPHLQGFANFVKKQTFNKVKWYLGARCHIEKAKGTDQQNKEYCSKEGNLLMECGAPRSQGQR
Protocol: as §1

[8] = test system: T8, Rep nickase domain of tomato yellow leaf curl virus
T8 sequence (residues 1-136 of Rep, tag left off): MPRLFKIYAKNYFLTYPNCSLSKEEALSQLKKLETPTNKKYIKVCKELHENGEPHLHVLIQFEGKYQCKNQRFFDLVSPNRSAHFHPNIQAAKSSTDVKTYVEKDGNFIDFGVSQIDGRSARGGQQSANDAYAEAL
Protocol: as §1

[9] = test system: T9, Rep nickase domain of wheat dwarf virus
T9 sequence (residues 1-137 of Rep, tag left off): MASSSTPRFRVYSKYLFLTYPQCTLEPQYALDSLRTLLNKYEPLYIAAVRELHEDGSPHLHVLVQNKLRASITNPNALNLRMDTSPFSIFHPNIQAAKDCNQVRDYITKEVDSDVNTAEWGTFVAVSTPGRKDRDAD
Protocol: as §1

Sequence | uncleaved DNA left (log2) [1] | uncleaved DNA left (log2) [2] | uncleaved DNA left (log2) [3] | uncleaved DNA left (log2) [4] | uncleaved DNA left (log2) [5] | uncleaved DNA left (log2) [6] | uncleaved DNA left (log2) [7] | uncleaved DNA left (log2) [8] | uncleaved DNA left (log2) [9]
CGCAGTC | -0.106 | -0.0313 | -0.0156 | -0.109 | -0.112 | -0.47 | 0.0706 | 0.0133 | -0.199
TTTATGA | -0.0222 | -0.0444 | 0.233 | 0.299 | 0.0359 | -0.13 | 0.0423 | 0.143 | 0.119
CCGACAC | 0.139 | 0.091 | 0.104 | 0.385 | 0.196 | -0.191 | 0.135 | 0.0693 | 0.221
CCGACGC | -0.0949 | -0.13 | -0.161 | 0.0123 | -0.157 | -0.475 | 0.104 | -0.144 | -0.213
GGTTTAT | -0.0462 | -0.0517 | 0.267 | 0.99 | -0.0676 | 1.78 | -0.126 | 0.0328 | -0.101
CGCACTC | -0.0393 | -0.113 | 0.0934 | 0.223 | -0.00624 | 0.268 | 0.0114 | -0.0163 | 0.0507
CGCCGAT | 0.0956 | -0.0587 | 0.0973 | 0.381 | 0.0432 | 0.394 | -0.00129 | -0.0204 | -0.0322
ACGCTCT | 0.118 | 0.0651 | -0.156 | -1.84 | 0.0547 | -0.569 | -0.0743 | -0.0042 | 0.00167
CTACATT | -0.167 | -0.0651 | -0.566 | -2.71 | 0.0879 | -0.163 | -0.494 | -0.0518 | -0.36
ATTGGGG | 0.242 | 0.0564 | 0.326 | 0.432 | 0.1 | -0.128 | 0.302 | 0.0986 | 0.135
AGTGAAG | 0.125 | 0.21 | -0.254 | -0.193 | 0.142 | -0.611 | 0.25 | 0.123 | 0.034
GGTACGT | 0.0298 | 0.127 | 0.813 | 1.92 | -0.0427 | 2.16 | 0.119 | 0.0611 | 0.0345
AGGATTG | 0.109 | 0.079 | 0.107 | 0.671 | 0.035 | 1.48 | 0.221 | -0.0664 | 0.0915
GTTGTCT | -0.0396 | 0.0383 | 0.261 | 0.605 | 0.0334 | 1.1 | 0.113 | 0.021 | 0.0258
ATTAGCA | 0.0519 | 0.0409 | -0.433 | -0.981 | -0.0273 | -1.19 | -0.104 | 0.0664 | -0.0377
